Laboratory results as given in PubChem BioAssay AID686979 (National Center for Advancing Translational Sciences (NCATS), 2013).
In all, about 420,000 compounds went through this assay and about 50,000 (12%) were called active. The shares of active, inactive and inconclusive entries below differ from those in the screen. Calls follow the shape of the dose curve; as a rule, active = well fitted inhibition curve with a large enough effect; inconclusive = small, poorly fitted or top-dose-only effect; inactive = flat fitted curve, though single readings scatter. No potency is given beside an inconclusive call; the fits are too rough.
% is scaled to controls: 0 for no effect and ±100 for the full control effect; potency is read from the fitted curve at half-maximal effect; tags tell the direction and shape of the fitted curve.

Test: qHTS for Inhibitors of human tyrosyl-DNA phosphodiesterase 1 (TDP1): qHTS in cells in presence of CPT; also: nearly all actives have a fitted effect of over 55% in size
Details: chicken DT40 Tdp1-/-;hTDP1 cells + 20 nM CPT, ATP luminescence, 48 h; activity change, negative = growth inhibition: at 46.2 µM (top of the series) unless noted
How it was run: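 Cell growth measured by CellTiter-Glo luminescence after a minimum 48 h, 37 C compound exposure with 20 nM CPT in Tdp1-knockout DT40 cells stably expressing hTDP1, seeded 400/well; qHTS titration format.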
For `COc1ccccc1N1CCN(C(=O)Cn2c(=O)oc3cc(S(=O)(=O)N4CCCC4)ccc32)CC1`, the Potency was inconclusive [inhibitor, single point].
With `Cc1c(NC(=O)CCSCCc2ccccn2)cccc1[N+](=O)[O-]` the Potency was inconclusive [inhibitor, single point].
For `CC1=NN(C(=S)Nc2ccccc2)C(C)(C)C1`, the “activity change, negative = growth inhibition” value was inactive: 0%.
With `O=[N+]([O-])c1cccc(Oc2ncccc2[N+](=O)[O-])c1` the “activity change, negative = growth inhibition” value was inactive: 0.482%.
For `O=C(OCc1ccccc1)N1CCC2CC1c1cc(N3CCN(C(=S)NCCc4ccccc4)CC3)ccc12` (configuration not stated), the Potency was inconclusive [inhibitor, single point].
For `Cc1cccc(C(=O)Nc2ccc(OCc3cc(=O)n4ccsc4n3)cc2)c1`, the “activity change, negative = growth inhibition” value was inactive: -29.2%.
In the case of `O=C(CN1CCN(c2nc(-c3ccccc3)cs2)CC1)NNC(=O)c1ccco1`, the “activity change, negative = growth inhibition” value is reported as inactive: -27.8%.
In the case of `CCC(C)NCCCOc1c(C)cc(C)cc1Br` (configuration not stated), the Potency is reported as inconclusive [inhibitor, single point].
With `COc1ccc(NC(=O)c2cc(-c3ccccn3)nc3ccccc23)c(OC)c1` the Potency was active: 29.1 µM.
For `CC(C)OCCCNC(=S)NNC(=O)C(c1ccccc1)c1ccccc1`, the Potency was inconclusive [inhibitor, partial curve].
With `O=C(Cn1ccc2cc(S(=O)(=O)N3CCCCCC3)ccc21)NCCc1ccc(Cl)cc1` the Potency was active: 16.4 µM.
For `CC(=O)N/C(=C/c1ccc(Cl)cc1)C(=O)NCCc1c[nH]c2ccccc12`, the “activity change, negative = growth inhibition” value was inactive: -13.8%.
For `CCOc1ccc(NC(=O)CN(C)c2nnnn2-c2ccccc2)cc1OCC`, the “activity change, negative = growth inhibition” value was inactive: -1.19%.
For `O=C(NNC(=S)NC(=O)c1ccc(F)cc1)c1cccnc1`, the Potency was inconclusive [inhibitor, single point].
For `C/C(=N\NC(=O)c1ccccc1O)c1c(O)cc(C)oc1=O`, the Potency was inconclusive [inhibitor, single point].
In the case of `CSc1cccc(-n2ccc(=O)c(C)c2C)c1`, the “activity change, negative = growth inhibition” value is reported as inactive: -3.09%.
With `Cc1cc(C)c(NC(=O)CN2C(=O)CC(C)S(=O)(=O)c3ccccc32)c(C)c1` (configuration not stated) the “activity change, negative = growth inhibition” value was inactive: -11.8%.
In the case of `CCc1ccc(NC(=O)C2CCCN(S(=O)(=O)c3c(C)noc3/C=C/N(C)C)C2)cc1` (configuration not stated), the Potency is reported as inconclusive [inhibitor, single point].
In the case of `COc1ccccc1N1CCN(Cc2ccc(OC)c3ccccc23)CC1`, the Potency is reported as active: 16.4 µM.
In the case of `NNC(=O)c1ccc(COc2ccc3c(c2)CCC3)o1`, the “activity change, negative = growth inhibition” value is reported as inactive: 5.56%.
For `COc1ccc(-c2c(-c3ccsc3)oc3ccc(N4CCOCC4)cc23)cn1`, the Potency was inconclusive [inhibitor, single point].
For `COc1ccc(N2CCc3c(C)nc4c(OC)cc(OC)cc4c32)cc1`, the Potency was active: 23.1 µM.
With `COc1ccc(C(=O)Nc2ccc(Oc3nc(C)nc4sc(-c5ccccc5)cc34)cc2)cc1OC` the Potency was inconclusive [inhibitor, single point].
For `N#Cc1ccc(CSc2nnc3[nH]c(=O)cc(N)n23)cc1`, the “activity change, negative = growth inhibition” value was inactive: -6.73%.
For `COc1ccc(Cl)cc1NC(=O)C1CC(c2ccccc2O)=NO1` (configuration not stated), the “activity change, negative = growth inhibition” value was inactive: 3.26%.
In the case of `CC(=O)Nc1cccc(NC(=O)CSc2nc(=O)n(Cc3ccccn3)c3c2CCC3)c1`, the “activity change, negative = growth inhibition” value is reported as inactive: 6.62%.
In the case of `Cc1ccc(C(C)C)c(OCC(=O)NCC(c2cccs2)N2CCOCC2)c1` (configuration not stated), the Potency is reported as active: 25.9 µM.
With `CCCCC[C@H](C)N1C[C@@H](COCc2ccccc2)Oc2cc(N3CC[C@@H](O)C3)ccc2S1(=O)=O` the Potency was inconclusive [inhibitor, single point].
With `O=C(NCc1ccccn1)c1ccc(Cl)c(S(=O)(=O)N2CCCCC2)c1` the Potency was inconclusive [inhibitor, single point].
For `CC(=O)N(C)C(c1ccc(N(C)C)cc1)c1nnnn1-c1c(C)cccc1C` (configuration not stated), the “activity change, negative = growth inhibition” value was inactive: -9.46%.
In the case of `CCN1CCN(C(=O)c2ccc3c(c2)N(Cc2ccccc2F)C(=O)c2ccccc2S3=O)CC1` (configuration not stated), the “activity change, negative = growth inhibition” value is reported as inactive: -2.4%.
In the case of `CN1CCN(c2ncnc3c2ncn3[C@H]2CN(Cc3ccccc3)C[C@@H](CO)O2)CC1`, the Potency is reported as inconclusive [inhibitor, single point].
In the case of `COc1ccc(Nc2c(CC(C)C)nc3nc(C)cc(C)n23)cc1`, the Potency is reported as inconclusive [inhibitor, single point].
With `CC(C)(C)[C@H]1C=C(C(=O)N2CCN(Cc3ccc4c(c3)OCO4)CC2)O[C@@H](OCCCCO)C1` the Potency was inconclusive [inhibitor, single point].
In the case of `CCc1nc2ccc(C(=O)NCCCN3CCCC3=O)cn2c1N(CC)CCN(C)C`, the “activity change, negative = growth inhibition” value is reported as inactive: 8.6%.
For `CN(Cc1ccccc1)c1ccc2nnc(-c3ccccc3)n2n1`, the Potency was inconclusive [inhibitor, single point].
In the case of `O=C(NC(NC(=S)Nc1ccc(Cl)c(Cl)c1)C(Cl)(Cl)Cl)c1ccco1` (configuration not stated), the Potency is reported as active: 20.6 µM.
For `Cc1ccc(NS(=O)(=O)c2ccc(C(=O)N3CCN(c4ncccn4)CC3)cc2)cc1`, the Potency was inconclusive [inhibitor, full curve].
With `CCc1c(C)sc(NC(=O)c2cc(-c3cc(OC)ccc3OC)on2)c1C#N` the Potency was inconclusive [inhibitor, single point].
With `Cc1ccc(-c2cccc(C3CC=CC4C3C(=O)N(Cc3ccccc3)C4c3cc(C)ccc3F)c2)cc1` (configuration not stated) the Potency was active: 16.4 µM.
For `CC(Oc1ccccc1)C(=O)N=Nc1c(O)[nH]c2ccc([N+](=O)[O-])cc12` (configuration not stated), the Potency was inconclusive [inhibitor, single point].
For `O=C(/C=C/c1ccccc1Cl)NC1CCS(=O)(=O)C1` (configuration not stated), the Potency was active: 20.6 µM.
In the case of `COc1cccc2sc(=NC(=O)CS(=O)(=O)c3ccc(F)cc3)n(C)c12`, the Potency is reported as inconclusive [inhibitor, single point].
In the case of `Cc1nn(C(C)C(=O)Nc2ccccc2Cl)c(=O)c2nn(-c3ccccc3)c(C)c12` (configuration not stated), the Potency is reported as inconclusive [inhibitor, partial curve].
In the case of `O=c1c2sccc2n(Cc2cc(=O)n3ccccc3n2)c(=O)n1-c1cccc(C(F)(F)F)c1`, the “activity change, negative = growth inhibition” value is reported as inactive: -4.53%.
In the case of `COc1cc(NC(=O)c2cccc(C)c2)c(OC)cc1NC(=O)CN1CCCCC1`, the Potency is reported as inconclusive [inhibitor, single point].
For `O=C(CSc1nc(-c2ccco2)cc(C(F)(F)F)n1)NCCc1ccccc1`, the Potency was inconclusive [inhibitor, single point].
